To fix the notation:
B1: OR4K15 (parent)
chain: GUUAACGGUCAUAGGCCAUGGAAACUAGGAGCACCAUUUCGCUGCCAGUGAAGAAAUGAACAAAGAAAAUCUGGGCCAGGCAGGCAUCAAAAGAAAUAGUCUUGCGCUCAACCAGAAAGUCUGUAAUCAUUUUAAGGGUA

The source gives no read counts; variants with many changes may rest on few reads.

This passage reports self-cleavage results from the RNAGym collection of RNA variant scans (doi:10.7554/elife.90254).

Variants of B1 are the subject of the data set. As to the kind of experiment: self-cleavage, relative activity (ratio to wild type); higher = more cleavage; in vitro, sequencing; the parent is a self-cleaving ribozyme.
On to GUUAACGGUCAUAGGCCAUGGAAACUGGGAGCACCAUUUUGCUGCCAGUGAAGAAAUGAACAAAGAAAAUCUGGGCCAGGCAGGCAUCAAAAGAAAUAGUCUUGCGCUCAACCAGAAAGUCUGUAAUCAUUUUAUGGGUA, for which the self-cleavage amounted to 0.36.

On to GUUAACGGUCAUAGGCCAUGGAAACUGGGAGCACCAUUUCACUGCCAGUGAAGAAAUGAACAAAGAAAAUCCGGGCCAGGCAGGCACCAAAAGAAAUAGUCUUGCGCUCAACCGGAAAGUCUGUAAUCAUUUUAAGGGUA, for which the self-cleavage stood at 1.86. Turning to GUUAACGGUCAUAGGCCAUGGAAACUGGGAGCACCAUUUCGCUGCCAGUGAAAAAAUGAACAAGGAAAACCUGGGCCAGGCAGGCAUCAAAUGAAAUAGUCUUGCGCUCAACCAGAAAGUCUGUAAUCAUUUCAAGGGUA, the self-cleavage amounted to 0.93.

Turning to GUUAACGGUCAUAGGCCAUGGAAACUGUGAGCACCAUUUCGCUGCCAGUGAAGAAAUGAACAAAGAAAAUCUGGGCCAGGCAGGCAUCGAAGGAAAAAGUCUUGCGCUCAACCAGAAAGUCUGUAAUCAUUUUAAGGGUA, the self-cleavage was 1.25. As for GUUAACGGUCAUAGGCCAUGGAAACUGGGAGCACCACUUCGCUGCCAGUGAAGGAACGAACAAAGAAAAUCUGGGCCAGGCAGGCACCAAAAGAAAUAGUCUUGCGCUCAACCAGAAAGUCUGUAAUCAUUUUAAGGGUA, the figure is 0.36; as for GUUAACGGUCAUAGGCCAUGGAAACUGGGAGCACCAUUCCGCUGCCAGUGAAGGAAUGAACAAAGAAAAUCUGGGCCAGGCAGGCAUCAAAAGAAAUAGUCUUGCGCUCAACCAGAAAGUCCGUAAUCAUUUUAAGGGUA, 0.77. As for GUUAACGGUCAUAGGCCAUGGAAACUGGGAGCACCAUUCCGCUGCCAGGGAAGAAAUGAACAAAGAAAACCUGGACCAGGCAGGCAUCAAAAGAGAUAGUCUUGCGCUCAACCAGAAAGUCUGUAAUCAUUUUAAGGGUA, the figure is 0.08. On to GUUAACGGUCAUAGGCCAUGGAAACUGGGAGCACCAUUUCGCUGCCAGUGAAGAAACGAACAAAGAAAAUCUGGGCCAGGCAGGCAUCAAAAGAAAUAUUCCUGCGCUCAACCAGAAAGUCUGUAAUCAUUUUAAGGGUA, for which the self-cleavage worked out at 1.33. As for GUUAACGGUCAUAGGCCAUGGAAACUGGGAGCACCAUUUCGCUGCCAGAGAAGAAAUGAACAAAGAAAAUCUGGGCCAGGCAGGCAUCAAAAGAAAUAGACUCGCGCUCAACCAGGAAGUCUGUAAUCAUUUUAAGGGUA, the figure is 0.05; as for GUUAACGGUCAUAGGCCAUGGAAACUGGGAGCACCAUUUCGCUGCCAGUGAAGAAAUGAACAAAGAAAAUCUGGGCCAGGCAGGCAUCAAAGGAAACAGUCUUGCGCUCAACCAGAAAGUCUGUAAUCAUUUUAAGGGUA, 0.68; as for GUUAACGGUCAUAGGCCAUGGAAACUGGGAGCACCAUUUCGCUGCCAGUGAAGAAAUGAACAAAGAAAAUCUGGGCCAGGCAGGCAUCAAAAGAAAUAGUCUUGCGCUCAGCCUGAAAGUCUGUAAUCAUUUUAAGGGUA, 0. In the case of GUUAACGGUCAUAGGCCAUGGAAACUGGGAACACCAUUUCGCUGCCAGUGGAGAAAUGAACAAAGAAAAUCUGGGCCAGGCAGGCAUCAAAAGAAAUAGUCUUGCGCUCAACCAGAAAGUCUGUAAUCAUUUUAAGGGUA, the self-cleavage came to 0.89. In the case of GUUAACGGUCAUAGGCCAUGGAAACUGGGAGCACCAUUUCGCCCCCAGUGAAGAAAUGAACAAAGAAAAUCUGGGCCAGGCAGGCAUCAAAAGAAAUAGUCUUGCGCUCAACCAGAAAGUCUGUAAUCAUUUUAAGGGUA, the self-cleavage came to 1.33. As for GUUAACGGUCAUAGGCCAUGGAAACUGGGAGCACCAUUUCGCAGCCAGUGAAGAAAUGAACAAAGAAAAUCCGGGCCAGGCAGGCAUCAAAAGAAAUAGUCUUGCGCUCAACCAGAAAGUCUGUAAUCAUUUUAAGGGUA, the figure is 0.18; as for GUUAACGGUCAUAGGCCAUGGAAACUGGGAGCACCAUAUCGCUGCAAGUGAAGAAAUGAACAAAGAAAAUCUGGGCCAGGCAGGCAUCAAAAGAAAUAGUCUUGCGCUCAACCAGAAAGUCUGUAAUCAUUUUAAGGGUA, 0.58. As for GUUAACGGUCAUAGGCCAUGGAAACUGGGAGCACCAUUUCGCUGCCAGUGAAGAAACGAACAAAGAAAACCUGGGCCAGGCAGGCAUCAAAAGAAGUAGUCUUGCGCUCAACCAGAAAGUCUGUAAUCGUUCUAAGGGUA, the figure is 0.63; as for GUUAACGGUCAUAGGCCAUGGAAACUGGGAGAACCAUCUCGCUGCCAGUGAAGAAAUGAACAAAGAAAAUCUGGGCCAAGCAGGCAUCAAAAGAAAUAGUCUUGCGCUCAACCAGAAAGUCUGUAAUCAUUUUAAGGGUA, 0; as for GUUAACGGUCAUAGGCCAUGGAAACUGGGAGCACCAUUACGCUGCCAGUGAAGAAAUGAACAAAGAAAAUCUGGGCCAGGCAGGCAUCAAAAGAAAUUGUCUUGCGCUCAACCAGAAAGUCUGUAAUCAUUUUAAGGGUA, 1.63. As for GUUAACGGUCAUAGGCCAUGGAAACUGGGAGCACCAUUUCGCUGCCAGCGAAGAAAUGAACAAAGAAAAUCUGGGCCAGGCAGGCAUCAAAGGAAAUAGUCUUGCGCUCAACCAGAAAGUCUGCAAUCAUUUUAAGGGUA, the figure is 1.29; as for GUUAACGGUCAUAGGCCAUGGAAACUGGGAGCACCAUUUCGCUGCCAGUGAAGAAAUGAACAAAGAAAAUCUGGGCCAGGCAGGCAUCAAAAGAAGUAGUCUUGCGCUCAACCAGAAGGUCUGUAAUCAUUUUAAGGGUA, 1.39. Regarding GUUAACGGUCAUAGGCCAUGGAAACUGGGAGCACCAUUUCGCUGCCAGUGAAGAAAUGAACAAAGAAAAUCUGGGCCAGGCAGGCAUCAAAAGAAAUAGUCUUGCGCUCAACCAGGAAGUCUUUAAUCAUUUUAAGGGUA, the self-cleavage came to 1.5.
